Consider one molecule from PubChem BioAssay (NCI).

Among the test systems are CCRF-CEM leukemia; DU-145 prostate; KM12 colon; OVCAR-8 ovarian; RPMI-8226 leukemia.
What all share (assay): NCI-60 cell line screen, 48 h

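Grown in 96-well plates, cells were treated for 48 hours with each compound at five concentrations. Insufficient inhibition: endpoint recorded as highest concentration tested. At the TGI there is no net growth.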 For part of its entries the source gives two or more results. The list is limited to them. The source may hold further records. The tests behind the records often covered other concentration ranges, which the source does not state; some values may only mark the edge of a range.

Turning to `CN1CCN(C(=O)Oc2cc3c(c4ccccc24)[C@H](CCl)CN3C(=O)c2cc3cc(OCCCN4CCC4)ccc3[nH]2)[C@H]2CSSC[C@H]21`, the TGI with CCRF-CEM leukemia is 585 nM and > 15.3 µM; in the test with DU-145 prostate, 51.1 nM and > 15.3 µM; with KM12 colon, 824 nM and > 15.3 µM; in the test with OVCAR-8 ovarian, 1.35 µM and 60.2 nM; with RPMI-8226 leukemia, 802 nM and > 15.3 µM.
